Data: paper PMC7409549, “A time-resolved interaction analysis of Bem1 reconstructs the flow of Cdc42 during polar growth” (Life Science Alliance, 2020)
These are yes or no findings as the source states them, for the method shown. Binding seen in cells or lysates may run through a third protein. Some results given as binding are weak or reduced against the parent protein; the word gives no strength. For some of these results: Tags and fused reporters may be left off the sequences shown.

T1: GST-Nbp2 (S. cerevisiae) (UniProt Q12163)
T1 sequence: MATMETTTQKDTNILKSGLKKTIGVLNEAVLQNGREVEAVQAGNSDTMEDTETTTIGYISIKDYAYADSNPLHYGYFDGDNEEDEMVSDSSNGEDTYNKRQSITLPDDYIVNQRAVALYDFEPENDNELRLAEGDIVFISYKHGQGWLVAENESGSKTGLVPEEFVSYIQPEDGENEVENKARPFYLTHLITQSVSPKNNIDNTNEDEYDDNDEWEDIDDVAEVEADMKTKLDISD

T2: Bem1-mCherry-Cub-RGFP (S. cerevisiae) (UniProt P29366)
T2 sequence: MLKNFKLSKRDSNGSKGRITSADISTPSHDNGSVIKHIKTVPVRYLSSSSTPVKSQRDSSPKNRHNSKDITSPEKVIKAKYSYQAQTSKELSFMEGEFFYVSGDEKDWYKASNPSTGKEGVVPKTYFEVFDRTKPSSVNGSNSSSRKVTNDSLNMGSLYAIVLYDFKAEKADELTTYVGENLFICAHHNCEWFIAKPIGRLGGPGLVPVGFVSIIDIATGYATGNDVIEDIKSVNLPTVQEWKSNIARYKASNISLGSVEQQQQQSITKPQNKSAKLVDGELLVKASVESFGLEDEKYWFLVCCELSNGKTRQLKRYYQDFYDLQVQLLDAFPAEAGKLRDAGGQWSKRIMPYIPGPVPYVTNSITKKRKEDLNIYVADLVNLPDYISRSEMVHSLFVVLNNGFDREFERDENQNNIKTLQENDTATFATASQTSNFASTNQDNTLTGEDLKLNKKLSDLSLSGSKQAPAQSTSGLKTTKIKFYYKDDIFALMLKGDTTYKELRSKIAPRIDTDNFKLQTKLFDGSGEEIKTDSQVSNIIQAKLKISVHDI

T3: Bem1-Cub-RUra3 (S. cerevisiae) (UniProt P29366)
T3 sequence: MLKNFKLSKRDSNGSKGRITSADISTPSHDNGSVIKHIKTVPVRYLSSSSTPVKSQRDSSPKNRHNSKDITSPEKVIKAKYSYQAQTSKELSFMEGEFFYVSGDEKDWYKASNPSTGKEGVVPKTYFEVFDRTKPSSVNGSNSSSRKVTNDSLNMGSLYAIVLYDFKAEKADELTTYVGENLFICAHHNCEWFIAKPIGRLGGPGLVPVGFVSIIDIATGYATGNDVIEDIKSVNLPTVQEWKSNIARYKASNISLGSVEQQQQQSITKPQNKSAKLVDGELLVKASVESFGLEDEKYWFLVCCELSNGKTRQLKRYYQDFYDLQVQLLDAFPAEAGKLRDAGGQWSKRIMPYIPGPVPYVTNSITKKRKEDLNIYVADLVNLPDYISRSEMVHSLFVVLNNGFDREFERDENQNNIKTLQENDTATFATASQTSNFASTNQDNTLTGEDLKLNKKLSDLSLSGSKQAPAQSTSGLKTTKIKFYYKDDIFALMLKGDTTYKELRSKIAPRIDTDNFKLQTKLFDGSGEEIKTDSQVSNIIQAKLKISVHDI

T4: Bem1WK-Cub-RUra3 (S. cerevisiae) (UniProt P29366)
T4 sequence: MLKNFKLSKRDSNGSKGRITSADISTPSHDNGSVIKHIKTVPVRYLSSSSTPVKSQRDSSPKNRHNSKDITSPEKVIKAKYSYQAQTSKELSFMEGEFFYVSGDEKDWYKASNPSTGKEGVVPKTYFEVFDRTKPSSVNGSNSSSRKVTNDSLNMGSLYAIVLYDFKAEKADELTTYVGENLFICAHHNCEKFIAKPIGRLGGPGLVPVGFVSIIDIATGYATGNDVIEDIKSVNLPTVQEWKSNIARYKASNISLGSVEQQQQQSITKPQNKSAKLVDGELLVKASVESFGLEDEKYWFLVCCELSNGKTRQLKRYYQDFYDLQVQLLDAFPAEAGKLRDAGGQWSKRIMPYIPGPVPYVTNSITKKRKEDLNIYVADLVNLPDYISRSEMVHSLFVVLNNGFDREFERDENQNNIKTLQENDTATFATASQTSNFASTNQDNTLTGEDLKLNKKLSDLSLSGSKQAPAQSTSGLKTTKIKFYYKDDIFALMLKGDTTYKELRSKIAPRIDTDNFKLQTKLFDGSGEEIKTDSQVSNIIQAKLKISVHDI


Tests used:
[1] = target: T1, GST-Nbp2 (S. cerevisiae); experiment: pull-down; GST fusions immobilised on glutathione sepharose beads from E. coli extracts, incubated 1 h at 4°C with yeast cell extracts; glutathione eluates blotted (anti-GFP or anti-Myc); only the target purified
[2] = target: T2, Bem1-mCherry-Cub-RGFP (S. cerevisiae); experiment: split reporter; SPLIFF (split-ubiquitin with mCherry-Cub-RGFP, CCG): a-cells with the CCG fusion mated with α-cells with Nub-HA fusions; conversion of CCG to CC measured by time-lapse microscopy at the site of cell fusion (PCDI); a significant positive slope = interaction
[3] = target: T2, Bem1-mCherry-Cub-RGFP (S. cerevisiae); experiment: split reporter; SPLIFF as a9, measured at the bud neck from completion of acto-myosin ring contraction until abscission (PCDIII)
[4] = target: T2, Bem1-mCherry-Cub-RGFP (S. cerevisiae); experiment: split reporter; SPLIFF as a9, measured at the cell front during bud site assembly and bud growth (PCDII)
[5] = target: T3, Bem1-Cub-RUra3 (S. cerevisiae); experiment: split reporter; split-ubiquitin (Split-Ub): a-cells with a Cub-RUra3 (CRU) fusion mated with α-cells with Nub fusions (P_CUP1), diploids as quadruplets on SD medium with 1 mg/ml 5-FOA and copper; growth = interaction; detects direct and indirect interactions
[6] = target: T4, Bem1WK-Cub-RUra3 (S. cerevisiae); experiment: as above

binding [1] | binding [2] | binding [3] | binding [4] | binding [5] | binding [6] | Binder
binds | – | – | – | – | – | Ste20_(F470L P475T) 9xMyc fusion (protein, UniProt Q03497 1-939) MSNDPSAVSELPDKDSLDNGISNDNERAMGGNGDGGDGLRLPRTTGTLNVNALQKGTNAAHEAGGYKSMDPAKNAETTNDDDNNVVSLDDPIQFTRVSSSSVISGMSSSMSPHSNIDETKSLEAVTPNINTSNITPDHSADNTFSTINASESDHQFNDTLLSKLSLTDSTETIENNATVKHQQPVASSTVNSNKSSTDIRRATPVSTPVISKPSMTTTPRQINSASHSLSNPKHKQHKPKVKPSKPEAKSKPVSVKKSFPSKNPLKNSSPPKKQTEKSYYSSSSKKRKSGSNSGTLRMKDVFTSFVQNIKRNSQDDKRASSSSNNSSSSSITTALRISTPYNAKHIHHVGVDSKTGEYTGLPEEWEKLLTSSGISKREQQQNMQAVMDIVKFYQDVTETNGEDKMFKTFNTTTGLPGSPQVSTPPANSFNKFPPSTSDSHNYGSRTGTPMSNHVMSPTLNTDSSSANGKLIPSRTAPKPPSSASASAPIIKSPVMNSAANVSPLKQTHAPTTPNRTSPNRSSISRNATLKKEEQPLPPIPPTKSKTSPIISTAHTPQQVAQSPKAPAQETVTTPTSKPAQARSLSKELNEKKREERERRKKQLYAKLNEICSDGDPSTKYANLVKIGQGASGGVYTAYEIGTNVSVAIKQMNLEKQPKKELIINEILVMKGSKHPNIVNFIDSYVLKGDLWVIMEYMEGGSLTDVVTHCILTEGQIGAVCRETLSGLEFLHSKGVLHRDIKSDNILLSMEGDIKLTDFGFCAQINELNLKRTTMVGTPYWMAPEVVSRKEYGPKVDIWSLGIMIIEMIEGEPPYLNETPLRALYLIATNGTPKLKEPENLSSSLKKFLDWCLCVEPEDRASATELLHDEYITEIAEANSSLAPLVKLARLKKVAENMDADEDNDDDNDNEHINKTNNCDDNNDSKETVNLDVTEDDKQK
binds | – | – | – | – | – | Cla4_(1-471F15A AA/PP F451L) 9xMyc (domain or fragment, UniProt P48562 1-471) MSLSAAANKISDNDAQNIGPAARPASSNSQGRTCYNQTQPITKLMSQLDLTSASHLGTSTSKKKSGWVSYKDDGILSFIWQKRYLMLHDSYVALYKNDKQNDDAILKIPLTSIISVSRTQLKQYCFELVRCSDRNSVSSGSSSSLNVSSDSNSKKSIYIATKTESDLHSWLDAIFAKCPLLSGVSSPTNFTHKVHVGFDPETGSFVGMPTNWEKLLKHSRITGEDWNNNSAAVIQVLQFYQEYNGAGNPTNTLDKPQSGETSSSQKSLPNSYNDNKLRNNSVNSKSSSGVSSSMVSQRKTSQPPNTKSPVSLGSGSLPPINTKLPTSQSNIPRHLQNVPNQQYPKMRNGHSPTNGQFPRGPMHPNNSQRSLQQQQQQQQQQKQQHQQYPYHHQGPSPSPSPSPSPLNPYRPHHNMINPYSKQPQSPLSSQSTQNQAIPRYAQNSSPTAAHLQPQRTAPKPPISAPRAPYPS
– | binds | binds | binds | binds | binds | Nub-Cdc24 (protein, UniProt P11433 1-854) MAIQTRFASGTSLSDLKPKPSATSISIPMQNVMNKPVTEQDSLFHICANIRKRLEVLPQLKPFLQLAYQSSEVLSERQSLLLSQKQHQELLKSNGANRDSSDLAPTLRSSSISTATSLMSMEGISYTNSNPSATPNMEDTLLTFSMGILPITMDCDPVTQLSQLFQQGAPLCILFNSVKPQFKLPVIASDDLKVCKKSIYDFILGCKKHFAFNDEELFTISDVFANSTSQLVKVLEVVETLMNSSPTIFPSKSKTQQIMNAENQHRHQPQQSSKKHNEYVKIIKEFVATERKYVHDLEILDKYRQQLLDSNLITSEELYMLFPNLGDAIDFQRRFLISLEINALVEPSKQRIGALFMHSKHFFKLYEPWSIGQNAAIEFLSSTLHKMRVDESQRFIINNKLELQSFLYKPVQRLCRYPLLVKELLAESSDDNNTKELEAALDISKNIARSINENQRRTENHQVVKKLYGRVVNWKGYRISKFGELLYFDKVFISTTNSSSEPEREFEVYLFEKIIILFSEVVTKKSASSLILKKKSSTSASISASNITDNNGSPHHSYHKRHSNSSSSNNIHLSSSSAAAIIHSSTNSSDNNSNNSSSSSLFKLSANEPKLDLRGRIMIMNLNQIIPQNNRSLNITWESIKEQGNFLLKFKNEETRDNWSSCLQQLIHDLKNEQFKARHHSSTSTTSSTAKSSSMMSPTTTMNTPNHHNSRQTHDSMASFSSSHMKRVSDVLPKRRTTSSSFESEIKSISENFKNSIPESSILFRISYNNNSNNTSSSEIFTLLVEKVWNFDDLIMAINSKISNTHNNNISPITKIKYQDEDGDFVVLGSDEDWNVAKEMLAENNEKFLNIRLY
